# PubChem BioAssay AID1745845 (National Center for Advancing Translational Sciences (NCATS), 2022)
# Where “and” joins values, the source holds several entries; their conditions need not be identical. Identical values can stand only once. In all, about 360,000 compounds went through this assay and about 2,600 (0.72%) were called active. This list was built around the results that the source calls inconclusive (neither active nor inactive); the mix of calls is not that of the screen. Calls follow the shape of the dose curve; as a rule, active = well fitted inhibition curve with a large enough effect; inconclusive = small, poorly fitted or top-dose-only effect; inactive = no such curve, though single readings can be large or run the other way. A potency beside an inconclusive call is a rough fit, not a confirmed value.
# Test: Primary qHTS for Inhibitors of ATXN expression; also: nearly all actives have a fitted effect of over 55% in size
# Conditions: HEK-293 ATXN2-luciferase reporter, luminescence, 24 h; activity change, negative = inhibition: at 57 µM (top of the series)
# Outline: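 qHTS (up to 57 uM final) was run with 24 h compound exposure of reporter cells at 37 °C. Each well was multiplexed: SteadyGlo luminescence measured ATXN2-luciferase expression after a fluorogenic Gly-Phe-AFC viability readout (25 uM final).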
# % is scaled to controls: 0 for no effect and ±100 for the full control effect; potency is read from the fitted curve at half-maximal effect; tags tell the direction and shape of the fitted curve.
SMILES,Potency,"activity change, negative = inhibition"
Cc1ccc(C2c3c(-c4cc(C)ccc4O)n[nH]c3C(=O)N2Cc2ccco2)cc1 (stereo not drawn),"inconclusive: 39.8 µM [inhibitor, single point]",
COC(=O)[C@@]1(Cc2ccc(OC)cc2)[C@@H]2[C@@H](CC(=O)[C@H]2CC(=O)C(=O)N(C)C)CN1C(=O)c1ccccc1,"inconclusive: 31.6 µM [inhibitor, partial curve, poor fit]",
OC(c1ccccc1)(c1nc(-c2cc(F)cc(F)c2)cs1)C(F)(F)F (stereo not drawn),"inconclusive: 31.6 µM [inhibitor, single point]",
COc1ccc(NC(=O)c2nc[nH]c2C(=O)N[C@@H](CC(C)C)C(=O)OC(C)(C)C)cc1,"inconclusive: 39.8 µM [inhibitor, single point]",
CCN(CC1COc2ccccc2O1)C(=O)c1ccc(Cl)c(S(=O)(=O)N2CC(C)OC(C)C2)c1 (stereo not drawn),"inconclusive: 22.4 µM [inhibitor, partial curve, poor fit]",
Cc1ccc(S(=O)(=O)c2cnc(SCC(=O)Nc3cccc(Cl)c3)nc2N)cc1C,"inconclusive: 28.2 µM [inhibitor, single point]",
O=C(O)/C=C\C(=O)Nc1ccccc1C#Cc1ccc(Br)cc1,,inactive: 40.3%
C=CCC[C@H](Cc1ccc(F)cc1)C(=O)OC[C@@H](C)NC(=O)[C@H](CC=C)CC(=O)N(CCO)Cc1ccccc1,"inconclusive: 39.8 µM [inhibitor, partial curve, poor fit]",
COc1ccccc1CC1(C)C(=O)Nc2ccc(OC(F)(F)F)cc21 (stereo not drawn),"inconclusive: 39.8 µM [inhibitor, single point]",
COc1ccc(C)cc1NC(=O)N1CCN(S(=O)(=O)c2ccc3c(ccn3C)c2)CC1,,inactive: -6.87%
COC(=O)c1ccsc1NC(=O)CCS(=O)(=O)c1ccc(Cl)cc1,,inactive: 12%
COc1ccc(-n2cc(-c3ccccc3)c3c(N4CCN(CCO)CC4)ncnc32)cc1,"inconclusive: 17.8 µM [inhibitor, partial curve, poor fit]",
CCN(CC)S(=O)(=O)c1ccc(NN)nc1,"inconclusive: 33.6 µM [inhibitor, partial curve, poor fit]",
COc1ccc(Cl)cc1NC(=O)c1cc(-c2ccc3c(c2)OCO3)on1,,inactive: 6.4%
COc1ccc(NC(=O)c2nc(S(C)(=O)=O)ncc2N(Cc2ccc(C)cc2)Cc2ccco2)cc1Cl,,inactive: 5.61%
Cc1ccccc1OCC(=O)OCC(=O)NC1CCCCCC1,,inactive: 1.85%
O=S(=O)(c1cccc(S(=O)(=O)N2CCCC2)c1)c1cccc(S(=O)(=O)N2CCCC2)c1,"inconclusive: 14.1 µM [inhibitor, partial curve, poor fit]",
O=C(Nc1cccc(/C=C/c2ccccn2)c1)c1ccc(-n2cncn2)c([N+](=O)[O-])c1,"inconclusive: 39.8 µM [inhibitor, single point]",
O=C(N/N=C/c1ccc(Cl)cc1)c1cc2c(s1)-c1ccccc1CC2,,inactive: -9.35%
COc1ccc(CN2CCCC(CO)(Cc3ccc(F)cc3)C2)cc1C (stereo not drawn),"inconclusive: 6.31 µM [inhibitor, partial curve, poor fit]",
COc1ccc(NC(=O)c2oc3ccc(S(=O)(=O)N4CCC5(CC4)OCCO5)cc3c2C)cc1,"inconclusive: 31.6 µM [inhibitor, partial curve]",

SMILES,Potency,"activity change, negative = inhibition"
O=C1c2ccccc2NC(c2ccc([N+](=O)[O-])cc2)N1O (stereo not drawn),"inconclusive: 39.8 µM [inhibitor, single point]",
COc1cc(-c2nc3ccccn3c2NCc2ccccc2)ccc1SC1CCCCC1,"inconclusive: 39.8 µM [inhibitor, single point]",
CCCCN1CC(c2nc3ccccc3n2CCCCOc2cc(C)cc(C)c2)CC1=O (stereo not drawn),"inconclusive: 25.1 µM [inhibitor, single point]",
NC(=O)c1nsc(C(=O)N(c2ccccc2F)C(C(=O)NCc2ccc(F)cc2)c2ccc(O)cc2)c1N (stereo not drawn),"inconclusive: 11.2 µM [inhibitor, partial curve, poor fit]",
COc1cccc2cc(C(=O)Nc3ccc(CC(=O)O)cc3)c(=O)oc12,active: 3.55 µM,
CCN(CC(=O)Nc1ccc2c(c1)OCCO2)Cc1nc2cc(Cl)ccc2c(=O)[nH]1,,inactive: 7.82%
CC/C(C)=N/Nc1cccc([N+](=O)[O-])c1,"inconclusive: 3.16 µM [inhibitor, full curve]",
C#CCOCCOCCOCCNc1nc(N2CCOCC2)nc(N2CCN(C(=O)CCCCCCCCCCNC(=O)[C@H](CO)n3cc(CCCCCN)nn3)CC2)n1,,inactive: -3.97%
CNC(=O)c1ccsc1NC(=O)c1ccc(S(=O)(=O)N2CCCc3ccccc32)cc1,"inconclusive: 28.2 µM [inhibitor, partial curve, poor fit]",
Cc1cccc(N2CCN(C(=O)c3nn(C)c4c3CS(=O)(=O)c3ccccc3-4)CC2)c1C,"inconclusive: 39.8 µM [inhibitor, single point]",
COc1ccc(Cn2ccc3nc(C)c(C(=O)N4CCN(c5cccc(OC)c5)CC4)cc3c2=O)cc1,"inconclusive: 15.8 µM [inhibitor, partial curve, poor fit]",
N=C1/C(=C\c2ccc(OC(=O)c3ccccc3)cc2)C(=O)N=C2SC(N3CCOCC3)=NN12,,inactive: 7.56%
CC(=O)c1cccc(NC(=S)NCCCCc2ccccc2)c1,"inconclusive: 28.2 µM [inhibitor, partial curve, poor fit]",
COc1ccccc1S(=O)(=O)Cc1ccc(C(=O)NC2CCCCC2)o1,,inactive: -13.4%
c1coc(-c2nc(-c3ccco3)c(-c3ccco3)nc2-c2ccco2)c1,"inconclusive: 22.4 µM [inhibitor, partial curve, poor fit]",
Cc1ccc(CN2CCSc3ccc(C(=O)NC4CCN(Cc5ccccc5)CC4)cc32)cc1,"inconclusive: 35.5 µM [inhibitor, partial curve, poor fit]",
CC(NC(=O)Cn1ccc2cc(S(=O)(=O)N3CCCCCC3)ccc21)c1ccccc1 (stereo not drawn),"inconclusive: 17.8 µM [inhibitor, partial curve, poor fit]",
CC1=CC2C(C(O)CC3(C)C2CC(C)C32OCOC23COCO3)C2(C)C/C(=C\O)C(=O)C=C12 (stereo not drawn),"inconclusive: 23.8 µM [inhibitor, single point]",
COCOCCn1cc(CN2CCS(=O)(=O)N(Cc3ccc(-c4ccc(F)cc4)cc3)C(C(C)C)C2=O)nn1 (stereo not drawn),"inconclusive: 31.6 µM [inhibitor, partial curve, poor fit]",
S=C(NCCc1ccccc1)Nc1ccccn1,,inactive: 68.5%
CC(C)(C)c1ccc(C2CC2C(=O)N/N=C\c2ccc[nH]2)cc1 (stereo not drawn),"inconclusive: 7.94 µM [inhibitor, full curve]",

SMILES,Potency,"activity change, negative = inhibition"
CCc1ccccc1NC(=S)N(CCCN1CCN(C)CC1)Cc1cccs1,"inconclusive: 0.597 µM [inhibitor, full curve]",
CCOc1ccccc1CNC(=O)C1CCCN(c2nnc(C)c3c(C)n(-c4ccccc4)nc23)C1 (stereo not drawn),"inconclusive: 11.2 µM [inhibitor, partial curve] and inconclusive: 7.08 µM [inhibitor, full curve]",
CCN(CC)C(=O)c1ccc2c(c1)N(Cc1ccc(C(F)(F)F)cc1)C(=O)c1ccccc1S2,"inconclusive: 31.6 µM [inhibitor, single point]",
Cc1ccc(NC(=S)NNC(=O)c2ccccc2OC(F)F)cc1,,inactive: -10.6%
CN1CCN(C(=O)C(=O)Nc2c3c(nn2-c2ccc(Cl)cc2)CSC3)CC1,,inactive: 4.36%
COc1ccc(C2=NN(C(=O)CSc3nc4ccccc4s3)C(c3ccc(F)cc3)C2)cc1 (stereo not drawn),,inactive: 0%
CN=C1SC(CC(=O)Nc2ccc(F)cc2F)C(=O)N1/N=C/c1ccc(OC(F)F)c(OC)c1 (stereo not drawn),,inconclusive: -46.3% [inhibitor]
Cc1ccc(-c2nnc(N3CCN(C(=O)CN4CCOCC4)CC3)c3ccccc23)cc1,,inactive: -22.4%
N#CCCNCC1(c2ccccc2)CCCC1,,inactive: -7.41%
CC(C)C[C@@H](COCc1ccc(C(F)(F)F)cc1)N1CCN(C(=O)c2ccc(C(F)(F)F)cc2)CCC1=O,"inconclusive: 22.4 µM [inhibitor, single point]",
C=CCN1C(=O)/C(=C/c2ccc(O)cc2)S/C1=N/c1nccs1,,inactive: -9.37%
O=C(Nc1ccncc1)c1cccc2ccccc12,,inactive: -5.42%
CC1CC(=O)NN=C1c1ccc(NCCO)c([N+](=O)[O-])c1 (stereo not drawn),,inactive: 14.8%
COc1ccc(/C=C/C(=O)c2ccc(C(=O)/C=C/c3ccc(OC)c(OC)c3)cc2)cc1OC,"inconclusive: 35.5 µM [inhibitor, single point]",
FC(F)(F)c1cccc(N2CCN(C3CC4CCC3C4)CC2)c1 (stereo not drawn),"inconclusive: 22.4 µM [inhibitor, single point]",
CC(=O)c1c(C)[nH]c(C(=O)Nc2cccc(C(F)(F)F)c2)c1C,,inactive: -1.7%
COc1ccc(C(=O)NCCn2cc(SCc3c(F)cccc3Cl)c3ccccc32)cc1,"inconclusive: 39.8 µM [inhibitor, single point]",
OC(CN1CCN(c2ccccn2)CC1)Cn1c2ccccc2c2ccccc21 (stereo not drawn),"inconclusive: 39.8 µM [inhibitor, single point]",
COc1ccc(Cc2c(-c3ccc(OC)c(OC)c3)nc3c(C)cc(Br)cn23)c(C)c1,"inconclusive: 39.8 µM [inhibitor, single point]",
CCCCc1nnc(SCc2cc(=O)c3cc(F)ccc3[nH]2)n1C,,inactive: -1.2%
CCOC(=O)Cc1nn(Cc2nc(-c3ccc(C#N)cc3)cs2)c(=O)c2ccccc12,"inconclusive: 14.1 µM [inhibitor, partial curve, poor fit]",
